Data: PMC13534789 (2026)

How the values were obtained:
[1] = biological target: T1, 10xHis-CAPRIN1 (recombinant human CAPRIN1, full length) (human, UniProt Q14444 1-709); test: SPR; sarkosyl-solubilized APP, with compound 0152 (0.1 uM)
T1 chain: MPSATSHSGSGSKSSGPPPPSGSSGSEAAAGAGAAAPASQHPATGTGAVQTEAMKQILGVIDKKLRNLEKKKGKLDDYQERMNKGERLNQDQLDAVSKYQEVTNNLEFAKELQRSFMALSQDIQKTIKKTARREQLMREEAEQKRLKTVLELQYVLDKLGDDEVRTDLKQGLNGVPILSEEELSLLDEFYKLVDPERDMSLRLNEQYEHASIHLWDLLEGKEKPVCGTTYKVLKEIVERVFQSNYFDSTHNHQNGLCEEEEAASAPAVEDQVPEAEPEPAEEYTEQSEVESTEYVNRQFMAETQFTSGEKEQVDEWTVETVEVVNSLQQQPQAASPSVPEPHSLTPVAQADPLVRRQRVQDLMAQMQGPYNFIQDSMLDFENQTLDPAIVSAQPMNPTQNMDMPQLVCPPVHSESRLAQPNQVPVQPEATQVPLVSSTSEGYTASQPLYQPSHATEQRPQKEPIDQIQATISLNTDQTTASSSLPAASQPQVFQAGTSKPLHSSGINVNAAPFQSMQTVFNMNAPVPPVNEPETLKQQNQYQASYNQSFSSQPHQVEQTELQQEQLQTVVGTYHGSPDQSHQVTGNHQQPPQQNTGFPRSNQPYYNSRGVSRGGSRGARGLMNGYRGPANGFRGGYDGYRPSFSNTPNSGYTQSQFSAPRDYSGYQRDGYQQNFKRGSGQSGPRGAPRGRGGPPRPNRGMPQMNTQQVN

[2] = biological target: T1, 10xHis-CAPRIN1 (recombinant human …); test: SPR; sarkosyl-solubilized APP, without 0152
[3] = biological target: T1, 10xHis-CAPRIN1 (recombinant human …); test: SPR; sarkosyl-solubilized APP, with compound 0152 (0.1 uM)
[4] = biological target: T1, 10xHis-CAPRIN1 (recombinant human …); test: SPR; sarkosyl-solubilized APP, without 0152

Kd [1]: 0.49 µM
Kd [2]: 18 µM
koff [3]: 0.0103 s⁻¹
koff [4]: 0.109 s⁻¹
B1: 10xHis-MBP-APP695 (full-length) (natural protein)
chain: LEVPTDGNAGLLAEPQIAMFCGRLNMHMNV[in this place about 40 residues]ANQPVTIQNWCKRGRKQCKTHPHFVIPYRCLVGEFVSDALLVPDKCKFLHQERMDVCETHLHWHTVAKETCSEKSTNLHDYGMLLPCGIDKFRGVEFVCCPLAEESDNVDSADAEEDDSDVWWGGADTDYADGSEDKVVEVAEEEEVAEVEEEEADDDEDDEDGDEVEEEAEEPYEEATERTTSIATTTTTTTESVEEVVRVPTTAASTPDAVDKYLETPGDENEHAHFQKAKERLEAKHRERMSQVMREWEEAERQAKNLPKADKKAVIQHFQEKVESLEQEAANERQQLVETHMARVEAMLNDRRRLALENYITALQAVPPRPRHVFNMLKKYVRAEQKDRQHTLKHFEHVRMVDPKKAAQIRSQVMTHLRVIYERMNQSLSLLYNVPAVAEEIQDEVDELLQKEQNYSDDVLANMISEPRISYGNDALMPSLTETKTTVELLPVNGEFSLDDLQPWHSFGADSVPANTENEVEPVDARPAADRGLTTRPGSGLTNIKTEEISEVKM[in this place about 100 residues]
